In paper PMC12186327:
Results are given in words; binding and its absence hold for the method and conditions named. Binding seen in cells or lysates may run through a third protein. Some binding calls cover weakened binding; strength is not graded here. One block for each molecule: values may come before it.

By UniProt entry, the sequences of proteins in these tests, tags left out. Residues count along the entry.
UniProt O88307, residues 82-2215: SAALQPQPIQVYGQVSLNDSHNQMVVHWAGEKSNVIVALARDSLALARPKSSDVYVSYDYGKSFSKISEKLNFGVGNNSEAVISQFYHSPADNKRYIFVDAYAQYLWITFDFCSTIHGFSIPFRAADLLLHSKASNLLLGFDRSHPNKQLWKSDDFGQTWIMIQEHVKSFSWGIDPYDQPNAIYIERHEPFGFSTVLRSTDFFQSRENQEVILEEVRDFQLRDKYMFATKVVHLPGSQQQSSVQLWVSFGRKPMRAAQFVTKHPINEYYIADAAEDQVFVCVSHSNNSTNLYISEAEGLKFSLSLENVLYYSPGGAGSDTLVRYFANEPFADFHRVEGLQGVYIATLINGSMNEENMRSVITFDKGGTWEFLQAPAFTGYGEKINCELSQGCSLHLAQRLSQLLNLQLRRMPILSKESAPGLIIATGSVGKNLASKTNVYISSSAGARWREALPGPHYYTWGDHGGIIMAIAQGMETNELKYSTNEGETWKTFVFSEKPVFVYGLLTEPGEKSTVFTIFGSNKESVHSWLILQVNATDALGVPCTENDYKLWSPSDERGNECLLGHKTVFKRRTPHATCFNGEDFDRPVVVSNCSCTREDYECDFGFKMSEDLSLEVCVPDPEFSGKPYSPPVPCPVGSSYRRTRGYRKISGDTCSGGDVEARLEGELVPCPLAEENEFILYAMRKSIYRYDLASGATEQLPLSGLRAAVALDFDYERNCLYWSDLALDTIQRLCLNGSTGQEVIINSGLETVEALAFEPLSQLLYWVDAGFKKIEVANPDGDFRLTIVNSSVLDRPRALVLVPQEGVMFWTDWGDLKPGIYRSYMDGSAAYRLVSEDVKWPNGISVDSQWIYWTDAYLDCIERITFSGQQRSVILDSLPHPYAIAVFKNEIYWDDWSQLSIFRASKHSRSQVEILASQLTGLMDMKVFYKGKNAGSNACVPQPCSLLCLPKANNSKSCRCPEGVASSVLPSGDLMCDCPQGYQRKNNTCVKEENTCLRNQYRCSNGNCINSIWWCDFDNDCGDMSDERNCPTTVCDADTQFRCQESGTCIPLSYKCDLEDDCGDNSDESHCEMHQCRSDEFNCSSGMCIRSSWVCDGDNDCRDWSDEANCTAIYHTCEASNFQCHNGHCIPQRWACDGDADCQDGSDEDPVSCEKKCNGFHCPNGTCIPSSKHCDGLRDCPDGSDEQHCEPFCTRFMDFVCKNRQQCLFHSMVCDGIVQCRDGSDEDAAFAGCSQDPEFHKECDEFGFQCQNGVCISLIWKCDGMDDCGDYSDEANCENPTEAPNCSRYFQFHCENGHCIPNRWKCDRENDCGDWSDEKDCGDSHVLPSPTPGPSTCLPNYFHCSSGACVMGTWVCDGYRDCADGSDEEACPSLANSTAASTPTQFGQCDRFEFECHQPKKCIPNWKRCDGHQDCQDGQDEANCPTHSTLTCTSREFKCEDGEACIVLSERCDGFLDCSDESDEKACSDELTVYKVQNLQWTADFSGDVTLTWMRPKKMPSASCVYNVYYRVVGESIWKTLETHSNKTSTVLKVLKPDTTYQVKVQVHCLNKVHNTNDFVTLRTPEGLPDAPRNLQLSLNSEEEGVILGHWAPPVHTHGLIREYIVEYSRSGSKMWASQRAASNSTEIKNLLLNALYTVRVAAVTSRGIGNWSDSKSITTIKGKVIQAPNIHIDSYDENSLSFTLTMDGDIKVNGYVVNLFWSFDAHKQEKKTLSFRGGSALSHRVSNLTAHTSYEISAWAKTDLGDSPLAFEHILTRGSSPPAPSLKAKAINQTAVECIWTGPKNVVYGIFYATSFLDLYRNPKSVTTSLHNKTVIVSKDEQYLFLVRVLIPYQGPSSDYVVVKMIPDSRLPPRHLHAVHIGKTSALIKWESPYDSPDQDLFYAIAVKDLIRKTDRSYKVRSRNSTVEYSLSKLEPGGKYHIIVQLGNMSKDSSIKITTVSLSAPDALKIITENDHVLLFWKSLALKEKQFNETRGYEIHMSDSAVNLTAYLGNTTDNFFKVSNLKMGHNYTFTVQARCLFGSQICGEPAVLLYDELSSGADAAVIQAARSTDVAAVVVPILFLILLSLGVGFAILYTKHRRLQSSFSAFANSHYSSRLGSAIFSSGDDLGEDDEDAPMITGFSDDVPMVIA
UniProt Q15796: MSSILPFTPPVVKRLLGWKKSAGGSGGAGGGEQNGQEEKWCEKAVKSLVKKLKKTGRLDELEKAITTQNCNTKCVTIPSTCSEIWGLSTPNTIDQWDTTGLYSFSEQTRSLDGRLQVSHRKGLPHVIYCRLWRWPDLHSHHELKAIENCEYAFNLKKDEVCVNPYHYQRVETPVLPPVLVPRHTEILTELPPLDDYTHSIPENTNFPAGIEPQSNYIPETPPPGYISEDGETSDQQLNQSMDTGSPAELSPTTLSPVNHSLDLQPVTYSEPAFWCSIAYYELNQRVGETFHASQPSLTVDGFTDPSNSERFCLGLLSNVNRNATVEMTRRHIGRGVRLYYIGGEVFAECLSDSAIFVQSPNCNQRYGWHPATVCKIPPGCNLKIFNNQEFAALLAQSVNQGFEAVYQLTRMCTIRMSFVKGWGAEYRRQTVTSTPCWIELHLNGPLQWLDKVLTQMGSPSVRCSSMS
UniProt Q91YI4: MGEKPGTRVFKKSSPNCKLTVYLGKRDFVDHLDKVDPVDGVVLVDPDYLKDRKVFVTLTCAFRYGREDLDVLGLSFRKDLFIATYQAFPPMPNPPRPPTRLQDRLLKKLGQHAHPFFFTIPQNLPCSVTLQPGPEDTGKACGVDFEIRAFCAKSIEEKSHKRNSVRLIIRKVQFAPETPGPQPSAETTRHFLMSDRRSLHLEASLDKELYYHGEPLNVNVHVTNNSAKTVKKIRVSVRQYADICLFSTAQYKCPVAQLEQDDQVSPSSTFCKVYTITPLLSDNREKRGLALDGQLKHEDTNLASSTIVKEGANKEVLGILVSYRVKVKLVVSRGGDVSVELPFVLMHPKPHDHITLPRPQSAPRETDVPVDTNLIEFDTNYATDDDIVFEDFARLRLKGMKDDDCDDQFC

Legend:
[1] = molecular target: SORLA F2172 to A mutant (mutation in the FANSHY motif) (human) (UniProt Q92673); assay: co-IP; HEK293 cells co-expressing the tagged proteins; IP with a Myc antibody; IP buffer 10 mM Tris, 1% NP-40, 10% glycerol, 5 mM EDTA, 5 mM EGTA, pH 7.6; some cells treated with dibutyryl-cAMP or PMA or co-expressing PKCι/λ-A120E
[2] = molecular target: Myc-tagged human SORLA (pCMV6-Entry-SORL1) (human) (UniProt Q92673); assay: as above
[3] = molecular target: endogenous SORLA of human prefrontal cortex (human (endogenous in prefrontal cortex)) (UniProt Q92673); assay: co-IP; human postmortem prefrontal cortex lysates (control and AD); IP with a mouse anti-SORLA antibody (BD Biosciences), protein G beads; 10 mM Tris pH 7.6, 10% glycerol, 1% Nonidet P-40, 5 mM EDTA, 5 mM EGTA
[4] = molecular target: endogenous SORLA of mouse brain (mouse (endogenous in cerebral cortex)) (UniProt O88307); assay: co-IP; mouse cortical lysates (WT, Arrb2-/-, AppKI; vehicle, Go6976, CRT0066854 or auranofin treatment); IP with an anti-SORLA antibody, protein G beads; 10 mM Tris pH 7.6, 10% glycerol, 0.5% Nonidet P-40, 5 mM EDTA, 5 mM EGTA
[5] = molecular target: GST-SMAD2 (UniProt Q15796); assay: pull-down; GST fusion proteins on glutathione-conjugated agarose beads incubated with in vitro translated, biotinylated-lysine-labeled SORLA-C; bound probe detected colorimetrically after SDS-PAGE; only the target purified
[6] = molecular target: GST-fused βARR2 (UniProt P32121); assay: as above

binding [1]: binds weakly
binding [2]: binds
Molecule: GFP-tagged βARR2 (β-arrestin2) (from UniProt P32121 1-409)

binding [3]: binds
Molecule: endogenous βARR2 of human prefrontal cortex (from UniProt P32121 1-409)

binding [4]: binds
Molecule: endogenous βARR2 of mouse brain (from UniProt Q91YI4 1-410)

binding [5]: no binding
binding [6]: binds
B1: SORLA-C (signal peptide a.a. 1-34 joined to the C terminal sequence a.a. 2111-2214 of SORLA) (domain or fragment, UniProt Q92673 1-34; Q92673 2111-2214)
chain: MATRSSRRESRLPFLFTLVALLPPGALCEVWTQRPAILLYDELGSGADASATQAARSTDVAAVVVPILFLILLSLGVGFAILYTKHRRLQSSFTAFANSHYSSRLGSAIFSSGDDLGEDDEDAPMITGFSDDVPMVIA
modifications: biotinylated lysine (Transcend tRNA) incorporated during in vitro translation
